{
  "source": "PubChem BioAssay AID504937",
  "about": "(National Center for Advancing Translational Sciences (NCATS), 2011)",
  "note": "The campaign covered roughly 340,000 compounds. About 20 (0.006%) were called active. This list was built around the results that the source calls inconclusive (neither active nor inactive); the mix of calls is not that of the screen. Calls follow the shape of the dose curve; as a rule, active = well fitted inhibition curve with a large enough effect; inconclusive = small, poorly fitted or top-dose-only effect; inactive = no such curve, though single readings can be large or run the other way. Potencies of inconclusive entries are doubtful fits and often do not repeat. Potency is read from the fitted curve at half-maximal effect; tags tell the direction and shape of the fitted curve.",
  "data": [
    {"molecular_target": "Sphingomyelin phosphodiesterase (Homo sapiens) (UniProt P17405)", "sequence (P17405 whole entry, looked up)": "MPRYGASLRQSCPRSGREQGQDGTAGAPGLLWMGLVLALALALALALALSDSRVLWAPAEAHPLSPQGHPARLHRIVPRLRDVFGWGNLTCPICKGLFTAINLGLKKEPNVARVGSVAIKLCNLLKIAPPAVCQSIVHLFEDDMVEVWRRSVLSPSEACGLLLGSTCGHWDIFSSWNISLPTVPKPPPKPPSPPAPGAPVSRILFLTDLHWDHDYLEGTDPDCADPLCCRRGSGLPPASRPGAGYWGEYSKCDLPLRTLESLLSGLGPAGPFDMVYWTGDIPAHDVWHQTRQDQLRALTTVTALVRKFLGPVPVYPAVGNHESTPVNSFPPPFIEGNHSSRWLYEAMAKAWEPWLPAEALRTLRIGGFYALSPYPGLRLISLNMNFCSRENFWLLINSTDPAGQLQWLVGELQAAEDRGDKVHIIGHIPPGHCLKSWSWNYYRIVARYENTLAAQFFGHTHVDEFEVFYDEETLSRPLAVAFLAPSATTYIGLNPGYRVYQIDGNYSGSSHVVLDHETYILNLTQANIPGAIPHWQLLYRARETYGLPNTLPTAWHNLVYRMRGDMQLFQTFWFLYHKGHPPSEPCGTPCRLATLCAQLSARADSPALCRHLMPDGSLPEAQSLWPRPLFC", "test": "Inhibitors of Secretory Acid Sphingomyelinase (S-ASM): qHTS", "details": "placental ASM, HMU-PC fluorogenic substrate (series up to 57.5 µM), 60 min; activity change, negative = inhibition: at the top concentration", "procedure,_shortened": "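Fluorogenic HMU-PC substrate (9 uM final) is turned over by placental ASM in 60 min at 37 C after a 10 min compound preincubation. Reaction ended by alkaline stop (pH 10), with fluorescence read at 386/447 nm.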", "values": [
      {"smiles": "CC(=O)N[C@@H](C)c1nc2ccccc2n1CCCN1CCN(c2nc(-c3ccc(C)cc3)cs2)CC1", "activity change, negative = inhibition": "inactive: 2%"},
      {"smiles": "Cc1ccc(/C=C2\\C(=O)Nc3ccccc32)o1", "Potency": "inconclusive: 398 µM [inhibitor, partial curve, poor fit]"},
      {"smiles": "CC(C)(C)NC(=O)c1ccc2c(c1)C1C3CCC(C3)C1C(c1ccccc1)N2", "note": "(centres undefined)", "Potency": "inconclusive: 794 µM [inhibitor, partial curve, poor fit]"},
      {"smiles": "COc1cccc2c1CCC1=CC(=O)CCC12C", "note": "(centres undefined)", "activity change, negative = inhibition": "inactive: -0.531%"},
      {"smiles": "COc1ccc(-c2n[nH]c(C)c2-c2ccc(Cl)cc2)c(O)c1", "Potency": "inconclusive: 89.1 µM [inhibitor, partial curve, poor fit]"},
      {"smiles": "Cc1cc(C)c2sc(NC(=O)c3ccc([N+](=O)[O-])o3)nc2c1", "activity change, negative = inhibition": "inactive: -9.09%"},
      {"smiles": "CCn1cc(S(=O)(=O)CC(=O)Nc2cc(C)on2)c2ccccc21", "activity change, negative = inhibition": "inactive: -0.712%"},
      {"smiles": "O=c1ccn(-c2cccc(C(F)(F)F)c2)nc1-c1ccn(-c2ccccc2F)n1", "activity change, negative = inhibition": "inactive: -0.728%"},
      {"smiles": "CC(/C=C/c1ccc2c(c1)OCO2)=N/NC(=O)CNc1ccc(C)cc1", "Potency": "inconclusive: 794 µM [inhibitor, partial curve, poor fit]"},
      {"smiles": "O=C1C(F)=CC(COC(c2ccccc2)(c2ccccc2)c2ccccc2)OC1n1cc(F)c(=O)[nH]c1=O", "note": "(centres undefined)", "Potency": "inconclusive: 126 µM [inhibitor, partial curve, poor fit]"},
      {"smiles": "CN1CCN(c2nc(Nc3ccc(F)cc3)nc(Nc3ccc(F)cc3)n2)CC1", "Potency": "inconclusive: 100 µM [inhibitor, partial curve, poor fit]"},
      {"smiles": "COc1cc(/C=C2\\C(=N)N3N=C(S(C)(=O)=O)SC3=NC2=O)ccc1OC(=O)c1ccco1", "Potency": "inconclusive: 7.08 µM [inhibitor, partial curve, poor fit]"},
      {"smiles": "COc1ccc(C2/C=C\\CN(C(=O)c3ccccc3)[C@H](Cc3ccccc3)C(=O)N2Cc2ccc(F)cc2)cc1", "note": "(some centres undefined)", "activity change, negative = inhibition": "inactive: -1.22%"},
      {"smiles": "COc1ccc2c(c1)c(CC(=O)OC(C)C(=O)N(C)C)c(C)n2C(=O)c1ccc(Cl)cc1", "note": "(centres undefined)", "Potency": "inconclusive: 112 µM [inhibitor, partial curve, poor fit]"},
      {"smiles": "COc1ccc(-c2cc(C(=O)Nc3c(C)nn(Cc4ccccc4Cl)c3C)no2)cc1OC", "Potency": "inconclusive: 501 µM [inhibitor, partial curve, poor fit]"},
      {"smiles": "Cc1snc(S(=O)(=O)/C(C#N)=N/Nc2ccc(C(F)(F)F)cc2)c1C#N", "Potency": "inconclusive: 89.1 µM [inhibitor, single point]"},
      {"smiles": "COc1cc2c(cc1NC(=O)Nc1cccc(C)c1)oc1ccccc12", "Potency": "inconclusive: 398 µM [inhibitor, partial curve, poor fit]"},
      {"smiles": "COCCn1c(C)cc(C(=O)COC(=O)c2n[nH]c3ccccc23)c1C", "activity change, negative = inhibition": "inactive: -1.37%"},
      {"smiles": "CC(=O)Oc1cc(C)cc2oc(=O)cc(-c3ccccc3)c12", "activity change, negative = inhibition": "inactive: -1.45%"},
      {"smiles": "Cc1ccc[n+](CC(=O)Nc2ccc([N+](=O)[O-])cc2)c1", "activity change, negative = inhibition": "inactive: -7.57%"},
      {"smiles": "NC(=S)N/N=C/c1cccc(O)c1O", "activity change, negative = inhibition": "inactive: 4.52%"},
      {"smiles": "CCN(CC)CCNc1ccc(Cl)cc1[N+](=O)[O-]", "Potency": "inconclusive: 100 µM [inhibitor, partial curve, poor fit]"},
      {"smiles": "Cc1[nH]n(-c2ccc(Br)cc2)c(=O)c1C=Nc1ccc(S(=O)(=O)Nc2nccs2)cc1", "Potency": "inconclusive: 100 µM [inhibitor, single point]"},
      {"smiles": "COc1ccc(Cn2c(SCc3ccc(C)cc3)nc3cc(OC)c(OC)cc3c2=N)cc1Cl", "Potency": "inconclusive: 39.8 µM [inhibitor, partial curve]"},
      {"smiles": "COc1ccc(CNC(=O)c2nn(C)c3c2CS(=O)(=O)c2ccccc2-3)cc1", "Potency": "inconclusive: 44.7 µM [inhibitor, single point]"},
      {"smiles": "CCCCNc1ccc(C(CC(N)=O)NC(=O)c2ccccc2)cc1[N+](=O)[O-]", "note": "(centres undefined)", "Potency": "inconclusive: 2820 µM [inhibitor, partial curve, poor fit]"},
      {"smiles": "CCOc1ccc2nc(N3C(=O)/C(=C/c4ccccc4)NC3=S)sc2c1", "Potency": "inconclusive: 200 µM [inhibitor, partial curve, poor fit]"},
      {"smiles": "CCOc1ccc(CN(Cc2ccco2)S(=O)(=O)c2ccc(-n3cnnn3)c(OC)c2)cc1", "Potency": "inconclusive: 178 µM [inhibitor, partial curve, poor fit]"},
      {"smiles": "Cc1cc(F)ccc1S(=O)(=O)Nc1ccccc1C(=O)Nc1ccc2[nH]c(=O)[nH]c2c1", "Potency": "inconclusive: 79.4 µM [inhibitor, single point]"},
      {"smiles": "COc1ccc(/C=N/NC(=O)CCCOc2ccc(Cl)cc2Cl)cc1[N+](=O)[O-]", "Potency": "inconclusive: 56.2 µM [inhibitor, partial curve, poor fit]"},
      {"smiles": "O=[N+]([O-])c1cc(S(=O)(=O)Nc2ccccc2)ccc1Nc1ccccc1", "activity change, negative = inhibition": "inactive: -16.1%"},
      {"smiles": "O=C(NC1CCCCC1)C(c1ccco1)N(C(=O)c1csnn1)c1cccc(F)c1", "note": "(centres undefined)", "activity change, negative = inhibition": "inactive: -1.84%"},
      {"smiles": "Cn1c(=O)c2c(nc(NCCc3ccccc3)n2CC(=O)NCCc2ccccc2)n(C)c1=O", "activity change, negative = inhibition": "inactive: 0.431%"},
      {"smiles": "CCn1cc([N+](=O)[O-])c(C(=O)N2N=C(c3ccc4ccccc4c3)CC2c2ccccc2O)n1", "note": "(centres undefined)", "Potency": "inconclusive: 126 µM [inhibitor, partial curve, poor fit]"},
      {"smiles": "C=CCc1ccc(OCC(O)CN2CCN(Cc3ccc(Cl)cc3)CC2)c(OC)c1", "note": "(centres undefined)", "activity change, negative = inhibition": "inactive: -1.68%"},
      {"smiles": "Cc1ccc(-c2csc(N3CCN(c4cc5c(cc4Cl)nc(C)n5CCN4CCCCC4)CC3)n2)cc1", "Potency": "inconclusive: 56.2 µM [inhibitor, partial curve, poor fit]"},
      {"smiles": "CC(=O)Nc1cc2nn(-c3ccccc3)nc2cc1C", "activity change, negative = inhibition": "inactive: 12.5%"},
      {"smiles": "COc1ccc(OCCNc2cc(N3CCOCC3)ccc2[N+](=O)[O-])cc1", "Potency": "inconclusive: 89.1 µM [inhibitor, single point]"},
      {"smiles": "OCCN1CCN(C2Cc3cc(Cl)ccc3Sc3ccc(Cl)cc32)CC1", "note": "(centres undefined) (tested in a mixture with another compound)", "Potency": "inconclusive: 316 µM [inhibitor, partial curve, poor fit]"},
      {"smiles": "Cc1ccc(S(=O)(=O)N2CCN(C(=O)c3ccc(N4CCCC4)c([N+](=O)[O-])c3)CC2)cc1", "Potency": "inconclusive: 316 µM [inhibitor, partial curve, poor fit]"},
      {"smiles": "CC1(c2ccc3ccccc3c2)NC(=O)N(CC(=O)N2CCN(S(=O)(=O)c3ccccc3F)CC2)C1=O", "note": "(centres undefined)", "activity change, negative = inhibition": "inactive: -1.35%"},
      {"smiles": "CCN(CC)C(=O)Cn1cc(C(=O)C(=O)N2CC=C(c3ccccc3)CC2)c2ccccc21", "activity change, negative = inhibition": "inactive: -1.92%"},
      {"smiles": "Cc1ccc(NC(=O)c2cc(N3C(=O)CCC3=O)ccc2N2CCCCC2)cc1", "Potency": "inconclusive: 1000 µM [inhibitor, partial curve, poor fit]"},
      {"smiles": "Cc1ccc(-c2ccc(=O)n(CC(=O)N3CCN(c4cc(Cl)ccc4C)CC3)n2)cc1", "Potency": "inconclusive: 100 µM [inhibitor, partial curve, poor fit]"},
      {"smiles": "COc1ccc(/C=N/NC(=O)c2cc(-c3ccccc3OC)nc3ccccc23)cc1COC(C)=O", "activity change, negative = inhibition": "inactive: -9.36%"},
      {"smiles": "COc1ccc(NC(=O)Nc2ccc3c(c2)C(=O)N([C@H](C)CO)C[C@H](C)[C@@H](CN(C)C(=O)Nc2ccccc2)O3)cc1", "activity change, negative = inhibition": "inactive: -2.31%"},
      {"smiles": "COc1ccccc1CCn1cnc2c3cc(C)ccc3n(C)c2c1=O", "activity change, negative = inhibition": "inactive: -4.74%"},
      {"smiles": "Oc1ccc2ccccc2c1C=Nc1ccccc1Br", "activity change, negative = inhibition": "inactive: -1.7%"},
      {"smiles": "C=CCSc1nnc2nc3[nH]c4c(C)cccc4c3nn12", "Potency": "inconclusive: 708 µM [inhibitor, partial curve, poor fit]"},
      {"smiles": "Cc1oc2c(c(C)cc3oc(=O)c(CC(=O)NCCC(=O)O)c(C)c32)c1C", "activity change, negative = inhibition": "inactive: 180%"},
      {"smiles": "CC1CCN(c2ccc3c(c2)S(=O)(=O)c2cccc(C(=O)NCc4ccc(F)cc4)c2C3=O)CC1", "Potency": "inconclusive: 1580 µM [inhibitor, partial curve, poor fit]"},
      {"smiles": "O=C(C[C@@H]1C/C=C/CC[C@@H](Cc2ccc(F)cc2)C(=O)O[C@@H](c2ccccc2)CNC1=O)NCCO", "activity change, negative = inhibition": "inactive: 6.48%"},
      {"smiles": "Cc1cccc(C(=O)Oc2ccc(/C=N/NC(=O)c3cc(O)cc(O)c3)cc2)c1", "Potency": "inconclusive: 50.1 µM [inhibitor, partial curve, poor fit]"},
      {"smiles": "COc1ccc(-[n+]2c(C)cc(/C=C3\\Sc4ccccc4N3C)cc2C)cc1", "Potency": "inconclusive: 112 µM [inhibitor, partial curve, poor fit]"},
      {"smiles": "O=C(Nc1ccc2c(c1)CN(Cc1ccco1)CC2)C1CCCO1", "note": "(centres undefined)", "activity change, negative = inhibition": "inactive: 1.53%"},
      {"smiles": "FC(F)(F)c1ccc(CSc2ccccn2)cc1", "activity change, negative = inhibition": "inactive: -0.0024%"},
      {"smiles": "Cn1c(Cn2cnc3ccccc32)nnc1SCC(=O)CC(=O)Nc1ccccc1", "Potency": "inconclusive: 12.6 µM [inhibitor, partial curve, poor fit]"},
      {"smiles": "Clc1ccc(-c2nn3c(C4COc5ccccc5O4)nnc3s2)cc1", "note": "(centres undefined)", "Potency": "inconclusive: 89.1 µM [inhibitor, single point]"},
      {"smiles": "O=C(CSc1ccc(Cl)cc1)N1CCN(c2ccc(Cl)cc2[N+](=O)[O-])CC1", "activity change, negative = inhibition": "inactive: -15%"},
      {"smiles": "CCCCCCCCCCOC(=O)Cn1c(COc2ccccc2C)[n+](C)c2ccccc21", "Potency": "inconclusive: 63.1 µM [inhibitor, single point]"},
      {"smiles": "CCCc1nc2ccccc2c(C(=O)OCC(=O)NCc2ccc3c(c2)OCO3)c1CC", "Potency": "inconclusive: 398 µM [inhibitor, partial curve, poor fit]"},
      {"smiles": "O=P(O)(O)CCP(=O)(c1ccccc1)c1ccccc1", "Potency": "inconclusive: 14.1 µM [inhibitor, partial curve, poor fit]"},
      {"smiles": "CCOC(=O)c1cnc2ccc(OCC)cc2c1N1CCN(c2ccccc2)CC1", "Potency": "inconclusive: 355 µM [inhibitor, partial curve, poor fit]"},
      {"smiles": "O=C(NP(=O)(N1CCCC1)N1CCCC1)C1=C(N2CCOCC2)/C(=C/c2cccc([N+](=O)[O-])c2)CC1", "Potency": "inconclusive: 35.5 µM [inhibitor, partial curve, poor fit]"}
    ]}
  ]
}
